# Reference: PubChem BioAssay AID1508623 (National Center for Advancing Translational Sciences (NCATS), 2021)
# The campaign covered roughly 48,000 compounds. About 450 (0.94%) were called active. Inconclusive results, whose numbers are uncertain, are shown with a selection of clear calls. The call rests on the fitted dose curve; in most records, active means well fitted inhibition curve with a large enough effect; inconclusive means small, poorly fitted or top-dose-only effect; inactive means no such curve, though single readings can be large or run the other way. A potency beside an inconclusive call is a rough fit, not a confirmed value.
# Assay: Primary qHTS for Identification of Small Molecule Inhibitors of Huntingtin Promoter Activity; further: nearly all actives have a fitted effect of over 50% in size
# Details: HEK293 HTT promoter firefly luciferase reporter (activity 0% = vehicle and -100% = no light), 24 h; series mostly up to 57.5 µM
# Outline: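 Luminescence was read after Dual-Glo reagent and a 10 min room-temperature incubation. Values were normalized to vehicle (0% activity) and zero RLU (-100% activity). Reporter HEK293 cells had been exposed to compounds (up to 57.5 uM final) for 24 h.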
# Potency means the concentration at half of the fitted maximal effect; tags describe the fitted curve by direction and shape.
row,SMILES,Potency
1,CCC1=C[C@@H]2CN(C1)Cc1c([nH]c3ccccc13)[C@@](C(=O)OC)(c1cc3c(cc1OC)N(C)[C@H]1[C@@](O)(C(=O)OC)[C@H](OC(C)=O)[C@]4(CC)C=CCN5CC[C@]31[C@@H]54)C2,inactive
2,COc1ccc(NC(=O)Cn2nc(C(F)(F)F)c3c2CCCC3)cc1OC,"inconclusive: 25.1 µM [inhibitor, partial curve]"
3,Cc1cccc(N2CCN(C(=O)c3ccc4c(Cl)c5c(nc4c3)CCCC5)CC2)c1C,inactive
4,CC(=O)c1cccc(NC(=O)c2cc(C)nc3c2c(C)nn3-c2cccc(Cl)c2C)c1,"inconclusive: 39.8 µM [inhibitor, single point]"
5,O=C(Nc1ccc(O)c(-c2nc3ccccc3o2)c1)c1ccco1,inactive
6,CC1CCN(C(=O)c2cc(-c3ccc(Cl)cc3)on2)CC1,inactive
7,COc1ccc(NC(=O)CN(C)S(=O)(=O)c2ccc3[nH]c4c(c3c2)CCCC4)cc1Cl,inactive
8,CC(=O)N1c2nc(-c3ccco3)nn2C2(CCCCC2)[C@@H]2CCCC[C@@H]21,inactive
9,COc1ccc(Cn2c(SCc3ccc(C(=O)NCc4ccccc4F)cc3)nc3cccnc32)cc1,"inconclusive: 25.1 µM [inhibitor, single point]"
10,Cc1ccc(Cl)cc1N1C(=O)N(Cc2ccc(C#N)cc2)c2ccccc2S1(=O)=O,"inconclusive: 28.2 µM [inhibitor, partial curve, poor fit]"
11,COc1ccc(CNC(=O)c2cccc(NC(=O)N3CCSc4ncccc43)c2)cc1,"inconclusive: 22.4 µM [inhibitor, partial curve, poor fit]"
12,COc1ccc(N(Cc2ccccc2)C(=O)c2nc(SC)ncc2Cl)cc1,active: 20 µM
13,Cc1ccc2nc(N(CCCN(C)C)C(=O)c3ccc(Br)s3)sc2c1,"inconclusive: 0.891 µM [inhibitor, full curve, poor fit]"
14,CCn1c(CN2CCC(C)CC2)nc2cc(NC(=O)COc3ccc([N+](=O)[O-])cc3)ccc21,"inconclusive: 15.8 µM [inhibitor, partial curve, poor fit]"
15,CCN(CC)c1cc2c(cc1F)c(=O)c(S(=O)(=O)c1ccccc1)cn2Cc1ccccc1,"inconclusive: 1 µM [inhibitor, full curve]"
16,CC(=O)c1cccc(NS(=O)(=O)c2c(C)nc3sc(C)cn3c2=O)c1,"inconclusive: 0.199 µM [inhibitor, full curve, poor fit]"
17,Cc1ccc(-c2ccc(=O)n(C(C)C(=O)Nc3ccccc3Cl)n2)cc1C (centres undefined),"inconclusive: 28.2 µM [inhibitor, partial curve, poor fit]"
18,COc1ccccc1-c1nn(CCC(=O)Nc2cccc(C(C)=O)c2)c2nc(C)cc(C)c12,"inconclusive: 28.2 µM [inhibitor, partial curve, poor fit]"
19,COc1ccc(C(=O)NCC(c2cccs2)S(=O)(=O)c2ccc(C)cc2)cc1 (centres undefined),"inconclusive: 39.8 µM [inhibitor, single point]"
20,Cc1cc(N2CCC(C)CC2)nc2ccc(NC(=O)CCC(=O)N3CCN(c4cccc(C(F)(F)F)c4)CC3)cc12,"inconclusive: 17.8 µM [inhibitor, partial curve]"

row,SMILES,Potency
1,Cc1cc(F)ccc1NC(=O)c1sc2nc(-c3cccs3)ccc2c1N,inactive
2,Cc1ccc(CC(=O)Nc2c(C(=O)N3CCN(c4ccccc4F)CC3)oc3ccccc23)cc1,"inconclusive: 22.4 µM [inhibitor, partial curve]"
3,CC(C)OCCCN1C(=O)c2[nH]nc(-c3ccccc3O)c2C1c1ccc(OCc2ccccc2)cc1 (centres undefined),"inconclusive: 25.1 µM [inhibitor, single point]"
4,Cc1ccc(NS(=O)(=O)c2ccc3c(c2)NC(=O)CCS3)c(Br)c1,"inconclusive: 39.8 µM [inhibitor, partial curve, poor fit]"
5,CN1C(C(=O)Nc2ccc(F)cc2F)=CC(c2cccs2)=NS1(=O)=O,"inconclusive: 31.6 µM [inhibitor, single point]"
6,CCOC(=O)C1=C(CN2CCC(C(=O)OCC)CC2)NC(=O)NC1c1ccc(Cl)cc1 (centres undefined),"inconclusive: 28.2 µM [inhibitor, partial curve, poor fit]"
7,Cc1ccc(NC(=O)Cn2c(=O)oc3cc(S(=O)(=O)N4CCCC4)ccc32)cc1F,"inconclusive: 39.8 µM [inhibitor, single point]"
8,CCOC(=O)c1ccc(NC(=O)C2CCCN(c3ncnc4onc(C)c34)C2)cc1 (centres undefined),"inconclusive: 20 µM [inhibitor, single point]"
9,COc1ccc(CCNc2oc(COc3ccc(Cl)cc3)nc2C#N)cc1OC,"inconclusive: 28.2 µM [inhibitor, single point]"
10,CCc1ccc2nc(N3CCN(C(=O)c4ccco4)CC3)sc2c1,inactive
11,CSc1nn(Cc2cccc(F)c2)c(N(C(C)=O)C(C)=O)c1S(=O)(=O)c1ccccc1,"inconclusive: 39.8 µM [inhibitor, single point]"
12,Cc1cccc2sc(N3CCN(C(=O)c4ccco4)CC3)nc12,inactive
13,CCOC(=O)c1c(C)[nH]c(C)c1S(=O)(=O)N1CCCC(C(=O)N2CCN(c3cc(C)ccc3C)CC2)C1 (centres undefined),"inconclusive: 28.2 µM [inhibitor, single point]"
14,COC(=O)c1cc(NC(=O)CN(c2ccccc2)S(=O)(=O)N(C)C)ccc1Cl,"inconclusive: 35.5 µM [inhibitor, single point]"
15,O=C(CCCCn1c(=O)[nH]c2ccsc2c1=O)N1CCN(c2cccc(Cl)c2)CC1,"inconclusive: 39.8 µM [inhibitor, single point]"
16,CCCCN(CCCC)S(=O)(=O)c1ccc2oc(C(=O)NCc3ccccc3)c(C)c2c1,"inconclusive: 25.1 µM [inhibitor, partial curve]"
17,Cc1cc(C)c(/C=C/c2onc(C)c2S(=O)(=O)N2CCC(C(=O)NCc3ccco3)CC2)c(C)c1,"inconclusive: 39.8 µM [inhibitor, partial curve, poor fit]"
18,CCc1ccc(NC(=O)c2ccc(CN3C(=O)C(C)=C(c4ccc(C)cc4)S3(=O)=O)cc2)cc1,"inconclusive: 7.08 µM [inhibitor, full curve, poor fit]"
19,COc1ccc(-c2onc(C)c2C)cc1S(=O)(=O)N1CCC(C)CC1,"inconclusive: 25.1 µM [inhibitor, single point]"
20,Cn1c(C(=O)NCc2cccc(F)c2)cc2cc(S(=O)(=O)N3CCCCC3)ccc21,"inconclusive: 17.8 µM [inhibitor, partial curve, poor fit]"

row,SMILES,Potency
1,COc1ccc2c(c1)CC[C@H]1[C@@H]2CC[C@]2(C)[C@@H](NCCCCCCN3C(=O)C=CC3=O)CC[C@H]12,inactive
2,CCOc1ccccc1NC(=O)CSc1cc(=O)n(CC)c2ccccc12,"inconclusive: 22.4 µM [inhibitor, partial curve, poor fit]"
3,CC(=O)c1cc(-c2ccccc2)n(CCC(=O)Nc2cc(C)cc(C)c2)c1C,"inconclusive: 39.8 µM [inhibitor, partial curve, poor fit]"
4,Nc1nc(-c2nn(Cc3ccccc3F)c3ncccc23)nc(N)c1N1CCOCC1,inactive
5,COc1ccc(-c2nc(CNS(=O)(=O)c3ccc(F)cc3)cs2)cc1,"inconclusive: 31.6 µM [inhibitor, single point]"
6,O=C(CSc1nc2c(c(=O)[nH]1)CN(Cc1ccc3c(c1)OCO3)CC2)Nc1ccc(F)cc1,"inconclusive: 39.8 µM [inhibitor, single point]"
7,Cc1c(C(=O)N(Cc2cccc(F)c2)C2CCS(=O)(=O)C2)oc2cc(Br)ccc12 (centres undefined),"inconclusive: 28.2 µM [inhibitor, single point]"
8,COc1ccc(CNC(=O)c2cccc(N3CCCS3(=O)=O)c2)cc1OC,"inconclusive: 1.78 µM [inhibitor, full curve, poor fit]"
9,CC(C)c1ccc(NC(=O)c2ccc(Cn3nc(N4CCN(c5ccccc5)CC4)ccc3=O)o2)cc1,"inconclusive: 8.91 µM [inhibitor, full curve, poor fit]"
10,CC(C)=CCC/C(C)=C/CC/C(C)=C/CCC(=O)OC/C=C(\C)CCC=C(C)C,inactive
11,C=CCc1ccc(OCc2ccc(C(=O)Nc3ccc(NC(C)=O)cc3)o2)c(OC)c1,"inconclusive: 15.8 µM [inhibitor, partial curve, poor fit]"
12,Cc1ccc(NS(=O)(=O)c2ccc3[nH]c4c(c3c2)CCCCCC4)cc1,"inconclusive: 25.1 µM [inhibitor, partial curve, poor fit]"
13,CCc1c(C)sc2c1CCN(C(=O)Nc1cc(C)ccc1OC)C2c1ccc(F)cc1 (centres undefined),"inconclusive: 12.6 µM [inhibitor, partial curve]"
14,CC1CCCN(S(=O)(=O)c2ccc(N3CCCCS3(=O)=O)cc2)C1 (centres undefined),inactive
15,CCN(C(=O)Cn1c(=O)nc(-c2ccccc2)c2cc(Cl)ccc21)c1cccc(C)c1,inactive
16,CCc1cccc(NC(=O)C2CCC(CNS(=O)(=O)c3ccc4c(c3)CCCC(=O)N4)CC2)c1 (centres undefined),"inconclusive: 2.51 µM [inhibitor, partial curve, poor fit]"
17,O=C(N/N=C/c1ccc([N+](=O)[O-])o1)c1ccc(O)cc1,"inconclusive: 35.5 µM [inhibitor, partial curve, poor fit]"
18,Cc1cncn1CCc1nc2c3ccccc3nc(SCC(=O)Nc3ccc(F)cc3)n2n1,inactive
19,COc1cccc(NC(CNS(=O)(=O)c2ccc(Cl)cc2)c2ccccc2)c1 (centres undefined),"inconclusive: 31.6 µM [inhibitor, single point]"
